52 molecules from ChEMBL document CHEMBL4888484, “Replenishing the malaria drug discovery pipeline: Screening and hit evaluation of the MMV Hit Generation Library 1 (HGL1) against asexual blood stage Plasmodium falciparum ,using a nano luciferase reporter read-out” (2022) can be followed below.

Hit rate of the full screen: of about 150,000 compounds, about 540 (0.36%) showed an effect of 50% or more. Some of the results follow.

The subject of this experiment is Plasmodium falciparum. Kind of experiment: Primary screen in NF54 nanoGlo assay, in single point, at 2uM, 72h; a lower Z score goes with more inhibition. The class given is functional, Erythrocyte. Conditions: timepoint 72 hour.
Consider `CC(C)(C)OC(=O)NCCNC(=O)Nc1cc(C2CC2)nn1-c1ccccc1`, for which the “% Inhibition” value amounted to 3% and the Z score is on record as -0.55.
`COc1ccc(CN(CCN2CCOCC2)C[C@H](O)COCc2ccccc2)cc1OC`: the “% Inhibition” value turned out to be 6% and the Z score is -1.13.
For the molecule `CC(=O)N[C@@H]1c2ccccc2C2(CCN(C(=O)Cc3ccccc3F)CC2)[C@H]1OCc1ccncc1`, the “% Inhibition” value is on record as -5% and the Z score is given as 0.74.
Consider `Cc1cccc(NC(=O)N2CC(C)C2C)n1` (centres undefined), for which the “% Inhibition” value came out at 18% and the Z score was -2.84.
On the same counts, the results for `CC(C)(O)[C@H]1CCN(C(=O)CCc2cccnc2)C1` are -8% and 1.55.
On the same counts, the results for `COc1cncc(O[C@H]2CCCN(C(=O)c3ccsc3)C2)n1` are -5% and 0.82.
On the same counts, the results for `Cc1ccc2nc(COc3cccc(C(=O)N4C[C@@H](CO)[C@H](C)C4)c3)cn2c1` are -17% and 2.15.
For `Cc1[nH]c2c(CN(CCN(C)C)C[C@H]3CCCO3)cccc2c1C`, the “% Inhibition” value is -6% and the Z score is given as 1.03.
With `Cc1nc(C(C)C)sc1-c1nc(C(C)C)no1`, the “% Inhibition” value is -4% and the Z score came out at 0.5.
On the same counts, the results for `O=C(NC[C@H]1CCCN(C(=O)C2CCOCC2)C1)c1ccc2ccccc2n1` are -10% and 1.71.
Consider `COc1cncc(O[C@H]2CCN(S(=O)(=O)c3cc(C)ccc3OC)C2)n1`, for which the “% Inhibition” value was -8% and the Z score was determined as 0.94.
On to `CN1CC2(CCN(C(=O)c3coc(CN4CCOCC4)c3)CC2)CC1=O`, for which the “% Inhibition” value is -10% and the Z score came out at 1.22.
`O=C(CCc1cnccn1)N1CCC[C@H](c2ccc(F)cc2)CC1`: the “% Inhibition” value is -14% and the Z score is on record as 1.88.
On to `c1ccc2c(c1)CCC(CN1CCCC(c3nnc4n3CCC4)C1)C2` (centres undefined), for which the “% Inhibition” value is reported as -4% and the Z score was 0.52.
Take `Cc1cccc2c1N(S(=O)(=O)c1c(C3OCCO3)cnn1C)CC2`: the “% Inhibition” value was determined as 9% and the Z score is -1.8.
In the case of `O=C(CN1C(=O)NC2(CCCC2)C1=O)N1CCC(c2nc3ccccc3o2)CC1`, the “% Inhibition” value is on record as -10% and the Z score is given as 1.36.
Take `CCOc1ccc(NC(=O)C2[C@@H]3C=C[C@]4(O3)C(C(=O)NC3CCCCC3C)N(Cc3ccc5c(c3)OCO5)C(=O)[C@H]24)cc1` (some centres undefined): the “% Inhibition” value is reported as -12% and the Z score worked out at 1.83.
With `Cc1c(Cl)ccc2c(C(=O)N3CCCC[C@@H]3C)cc(-c3cccnc3)nc12`, the “% Inhibition” value was -18% and the Z score came out at 2.13.
For `CN(C[C@H]1CCCCN1C)C(=O)[C@H]1CC[C@@H](O)CC1`, the “% Inhibition” value was -2% and the Z score turned out to be 0.35.
On to `CCn1nc(C)cc1C(=O)Nc1nc2c(OC)cccc2n1C`, for which the “% Inhibition” value is 12% and the Z score is recorded as -1.91.
On the same counts, the results for `O=C(NC[C@H]1OC[C@@H](NCc2cccs2)[C@@H]1O)c1ccc(F)cc1` are -2% and 0.31.
On the same counts, the results for `Cn1nnc(CNC(=O)C2=CCCCCC2)n1` are -18% and 1.9.
On the same counts, the results for `CC(NCC1CCCS1(=O)=O)c1ccc(F)cc1OC(F)F` (centres undefined) are -1% and 0.1.
Take `CC(C)c1nccc(N2CCC[C@H](Cn3cncn3)C2)n1`: the “% Inhibition” value was -6% and the Z score came out at 1.11.
On the same counts, the results for `CC1c2ccsc2CCN1C(=O)C1CC12CC2` (centres undefined) are -4% and 0.81.
Turning to `CCCN(CC(=O)N1CCCCC1)C1C2CCOC2C1(C)C` (centres undefined), the “% Inhibition” value worked out at 3% and the Z score was -0.61.
In the case of `CN(c1ccc(NC(=O)N2CCC[C@H](c3nncn3C)C2)cc1F)C1CCCCC1`, the “% Inhibition” value is on record as -13% and the Z score was determined as 1.69.
On the same counts, the results for `Cc1ccc(NC(=O)CN2CC(=O)NC2=O)cc1OCc1cccc(Cl)c1` are 0% and 0.04.
On the same counts, the results for `COc1ccc(-n2ncc(Oc3ccc(Cl)cc3)c(Nc3cccc(C(=O)NC4CC4)c3)c2=O)cc1` are 9% and -0.86.
With `C[C@H]1CCCN(CCC(=O)N2CCc3onc(-c4ccccc4)c3C2)C1`, the “% Inhibition” value is reported as -7% and the Z score worked out at 1.38.
On the same counts, the results for `CCN(C(=O)c1cnn(C)c1)c1ccccc1` are 4% and -0.58.
On the same counts, the results for `CCO[C@H]1C[C@@H](O)C12CCN(C(=O)CCc1cnn(C)c1)CC2` are -6% and 1.1.
For `NCc1ccnc(OCC2CC(F)(F)C2)c1`, the “% Inhibition” value is given as 1% and the Z score is given as -0.14.
`COc1ccc([C@@H]2N(c3ccc(Cl)cc3)OC(=O)N2c2ccccc2)cc1`: the “% Inhibition” value was 1% and the Z score was -0.09.
On the same counts, the results for `CCS(=O)(=O)C1CN(C(=O)c2ccc(OCC(C)C)nc2)C1` are -5% and 0.91.
On the same counts, the results for `CCn1nc(C(=O)NCc2ccncc2)c2c1CC[C@H](NCc1ccc(C)c(F)c1)C2` are -1% and 0.13.
On the same counts, the results for `CCC(C)C(C)NC(=O)N1CCCC(c2nn(-c3ccccc3)cc2C(N)=O)C1` (centres undefined) are -14% and 1.51.
For the molecule `O=C(c1cc(C2CC2)on1)N1CC(c2nc(-c3ccncc3)no2)C1`, the “% Inhibition” value is -14% and the Z score is given as 2.69.
On the same counts, the results for `Cc1cc(Cn2ccc(-c3cccc(-c4nccc5occc45)c3)n2)no1` are -10% and 0.92.
With `Cc1cnccc1CNC(=O)N1CCN(c2nccnc2C#N)C[C@@H]1C`, the “% Inhibition” value was -9% and the Z score was determined as 1.34.
Take `C=C[C@H]1OCC[C@@H]1NC(=O)c1c(O)cc(Cl)cc1Cl`: the “% Inhibition” value is given as -11% and the Z score is given as 1.41.
On the same counts, the results for `COc1ccc(CC(=O)N2CC3(C[C@@H](c4noc(-c5ccccn5)n4)N(C)C3)C2)cc1` are -11% and 1.24.
On the same counts, the results for `Cc1cc(NC(=O)C2CCOCC2)sn1` are 0% and -0.02.
On the same counts, the results for `CCCCNC(=O)c1c(NC(=O)[C@@H]2CCCCO2)nc(C)n1C` are 4% and -0.83.
Turning to `CC1(C)CCc2nnc(Cn3ccc4ccccc43)n2C1`, the “% Inhibition” value is recorded as -20% and the Z score was 3.06.
Regarding `COC[C@H]1CCN(C(=O)Nc2ccc3c(c2)Nc2ccccc2CC3)C1`, the “% Inhibition” value was -11% and the Z score was determined as 1.34.
As for `CN1CC2(C[C@H]1C(=O)NCc1ccc(N3CCOCC3)cc1)CN(Cc1ccccc1)C2`, the “% Inhibition” value amounted to 5% and the Z score was -0.94.
For the molecule `Cc1ncsc1CCN(C)[C@@H](C(=O)O)c1ccc(N2CCCCC2)nc1`, the “% Inhibition” value is given as -11% and the Z score stood at 1.37.
On the same counts, the results for `CC(Cc1ccccc1)(NC(=O)C1CCCN(C(=O)c2ccoc2)C1)C(=O)O` (centres undefined) are -9% and 1.33.
On the same counts, the results for `COc1ccc(CNC(=O)C2CCN(S(=O)(=O)N3CCC(C)CC3)CC2)c(OC)c1` are -3% and 0.4.
For the molecule `CCOc1ccc(CNc2cc(C(=O)NCCCn3ccnc3)cc(S(=O)(=O)N(C)C)c2)cc1`, the “% Inhibition” value worked out at 0% and the Z score is -0.05.
On the same counts, the results for `Cc1ncc2n1CC[C@H](C(=O)Nc1ccc(C3CC3)cn1)C2` are 5% and -0.62.
